Assay results as given in the supplement of paper PMC11417369.
± gives the standard deviation of the averaged measurements. The list shows a part of the results.

Each sequence was assayed on PfAP2-I AP2 domain 3 (GST-tagged) (assay: gcPBM binding intensity (ln(normalized median fluorescence intensity)); higher = stronger DNA binding).
Method in brief: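 After 1 h on an Agilent 4 × 180k array of primer-extended double-stranded 36-bp intergenic genomic probes and negative controls, bound GST-tagged P. falciparum DNA-binding domains were detected with Alexa488 anti-GST antibody and scanned at 488 nm. The domains had been expressed in E. coli, and binding took place in 1× PBS with 1% milk, 0.2 mg/ml BSA, 0.5% salmon testes DNA and 0.03% Triton X-100. Binding intensity is the highest Masliner-normalised natural-log median intensity across replicate spots of either probe orientation.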

Sequence | gcPBM binding intensity (ln)
TAATATATATATATATGTACATATATATTATGTATA [XGTACX_site4690] | 7.76 ± 0.28
TTCTCAAAATTAAAATAACAGATTAACGAACTAACG [CACACA_negctrl_site1720] | 7.74 ± 0.18
AGATTATTTAGAATGTGTACATATTACACATACATG [XGTACX_site8634] | 7.97 ± 0.23
AAAAGAAATATTTATACACACACACTAACATATATA [CACACA_site8580] | 7.78 ± 0.4
TTATATATAATTACATGTACGTAGTATTATTTAAAT [XGTACX_site3418] | 7.92 ± 0.26
TTATCATTTTAATGGTGTACTCAATAAAAACTTTAA [XGTACX_site4595] | 7.86 ± 0.014
GTGAAAAAAAACATATGTACTTATACACTAATCTAT [XGTACX_site7600] | 7.91 ± 0.41
TGGTAAAGGAGCAAGATGATAAATCTCCATAACTTT [CACACA_negctrl_site492] | 7.58 ± 0.67
ATGTCTATAATAAGAACACACATATATTTAATTTAA [CACACA_site7394] | 7.64 ± 0.44
GTTGGTACCTTACTTTTACACACTTTTTTTTTTTTT [CACACA_site8441] | 7.96 ± 0.66
TATATATATATGTATACACACATACAAATATGTAAA [CACACA_site9238] | 9.27 ± 0.11
CTATATTCGTTTAATAGTACATATATAACTAGACAA [XGTACX_site5770] | 7.82 ± 0.35
TACACAAGCGGACACACACACATATATATATATATA [CACACA_site4832] | 9.62 ± 0.47
AACATTCTAAAACACACACACACATATATATATATA [CACACA_site1052] | 9.38 ± 0.29
TATATATAAAAAAGCACACATACATACATACATAAT [CACACA_site890] | 8.12 ± 0.52
TTTTCACTTTTAAAAACATGCATACTTTATAAAATA [TGCATGCA_site967] | 8.71 ± 0.56
AAAAAAAAAAAACACACACACACATAAATATATATA [CACACA_site149] | 7.97 ± 0.63
TGTAAATTTGGCATCACACATAAATAAACATATAAA [CACACA_site4497] | 7.86 ± 0.51
TATTAACATATATAAAGTACATTAAACAACATTGTA [XGTACX_site7667] | 7.55 ± 0.42
CATATAAAAGGACACACACACACATATAAATATGTA [CACACA_site6568] | 8.04 ± 0.23
ATTTTTATAGAATGAACACACATATTATAGCATTTA [CACACA_site6842] | 7.56 ± 0.58
TGCTATTTTATTTATTCTTTTATAAAAGTATAATAT [XGTACX_negctrl_site358] | 7.83 ± 0.72

Sequence | gcPBM binding intensity (ln)
ATAAAAAAAATTTGCACACCTTCAAAGTAATATATA [CACACA_site1584] | 9.23 ± 0.099
AAAAAAAAAAAAAGTACATGCAATATGGATCTTAAA [TGCATGCA_site367] | 8.15 ± 0.28
TAATTTTTTTTTTTTTTTTTTGTACTTCATTTTTAT [CACACA_negctrl_site1395] | 7.62 ± 0.15
CATAGATACATACACGCACACACATATATATATATA [CACACA_site13] | 9.23 ± 0.23
GTATTACCTTATTATTGTACTTTCATGATATATATG [XGTACX_site5382] | 7.94 ± 0.69
TTAATGAATGGACACACACACATATATATATATATT [CACACA_site5294] | 7.93 ± 0.4
AACATACATGTATATAGTACATATTACATCTGATAC [XGTACX_site3649] | 7.67 ± 0.59
TACACAAGAAAATTCACACACACACCCATATATATA [CACACA_site3879] | 8.35 ± 0.73
AAGAAAATTAAATTAACACACATAAATATATATATA [CACACA_site1664] | 9.19 ± 0.13
GAGTTATTTCTTATTTAAGCATTCTACATATATATA [CACACA_negctrl_site239] | 7.71 ± 0.59
ATTTTACATATTTGCACACATATATTTAAATACATA [CACACA_site4627] | 9.85 ± 0.28
ATATTTATCTTTTTATGTACATATGCCCCTTTTCTG [XGTACX_site673] | 8.37 ± 0.52
TCTTGGTTATTAAAAAAAAAAAAATATATTTTTCCT [TGCATGCA_negctrl_site445] | 7.34 ± 0.58
GTCCTTATGGATGATAAATTATTTTAAATATTCTAT [XGTACX_negctrl_site200] | 7.31 ± 0.54
AATAAAAAATATATGAGTACTAAATTGTTTTCTTAA [XGTACX_site8573] | 7.66 ± 0.3
GGGAAAATAAATAAAGTGCAGATATTAAAAGTTGTA | 8.85 ± 0.31
TTGCATATTTCTAATTGTACATTATTTTATTTTATA [XGTACX_site8451] | 7.75 ± 0.54
CTCAACGATAGAGAAACATGCAAGTATAAGCAACTA [TGCATGCA_site771] | 7.69 ± 0.78
ATTCACTAAAAAATTGCATGCAATAAATTTTTTTTT [TGCATGCA_site962] | 7.66 ± 0.48
TTTTATTGTTGTTATACACACCATATAAAATATTTC [CACACA_site4983] | 7.92 ± 0.6
AATTGATTTATATATTGTACATATAAATTTATGTAT [XGTACX_site7785] | 7.58 ± 0.29
AATAAATATAGATTCACACACAAACATATATAAATA [CACACA_site7814] | 7.6 ± 0.61
